# Reference: the supplement of paper PMC8728848
# This is one part of the list.
# How the values were obtained:
# Experiment in all cases: glycan array binding signal (z-score within array); higher = stronger binding
# Settings in all cases: glycan notation: IUPAC condensed, linker removed
# Gal6S(b1-4)Glc = molecular target: Gal6S(b1-4)Glc
# In short: (§1)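 Negative Z-scores can be read as non-binding. The Z-score is calculated within each array and then averaged across arrays of one protein sequence at different concentrations or buffers and across linkers. Arrays, 3228 in all, were curated from the Consortium for Functional Glycomics database and kept only where the protein sequence was available.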
# Gal6S(b1-4)Glc6S = molecular target: Gal6S(b1-4)Glc6S
# In short: as §1
# Gal6S(b1-4)GlcNAc = molecular target: Gal6S(b1-4)GlcNAc
# In short: as §1
# Gal6S(b1-4)GlcNAc6S = molecular target: Gal6S(b1-4)GlcNAc6S
# In short: as §1
# GalNAc(a1-3)Gal = molecular target: GalNAc(a1-3)Gal
# In short: as §1
# GalNAc(a1-3)GalNAc = molecular target: GalNAc(a1-3)GalNAc
# In short: as §1
# [1] = molecular target: GalNAc(a1-3)GalNAc(b1-3)Gal(a1-4)Gal(b1-4)Glc
# In short: as §1
# [2] = molecular target: GalNAc(a1-3)GalNAc(b1-3)Gal(a1-4)Gal(b1-4)GlcNAc
# In short: as §1
# GalNAc(b1-3)Gal = molecular target: GalNAc(b1-3)Gal
# In short: as §1
# [3] = molecular target: GalNAc(b1-3)Gal(a1-4)Gal(b1-4)GlcNAc
# In short: as §1
# [4] = molecular target: GalNAc(b1-3)Gal(a1-4)Gal(b1-4)GlcNAc(b1-3)Gal(b1-4)Glc
# In short: as §1
# [5] = molecular target: GalNAc(b1-3)Gal(a1-6)Gal(b1-4)Glc
# In short: as §1
# GalNAc(b1-3)GalNAc = molecular target: GalNAc(b1-3)GalNAc
# In short: as §1
# GalNAc(b1-3)GlcNAc = molecular target: GalNAc(b1-3)GlcNAc
# In short: as §1
# GalNAc(b1-4)Gal(b1-4)Glc = molecular target: GalNAc(b1-4)Gal(b1-4)Glc
# In short: as §1
# GalNAc(b1-4)GlcNAc = molecular target: GalNAc(b1-4)GlcNAc
# In short: as §1
# [6] = molecular target: GalNAc(b1-4)GlcNAc(b1-2)Man
# In short: as §1
# [7] = molecular target: GalNAc(b1-4)GlcNAc(b1-2)Man(a1-3)[GalNAc(b1-4)GlcNAc(b1-2)Man(a1-6)]Man(b1-4)GlcNAc(b1-4)GlcNAc
# In short: as §1
# [8] = molecular target: GalNAc(b1-4)GlcNAc(b1-3)GalNAc(b1-4)GlcNAc
# In short: as §1
# GalNAc(b1-4)GlcNAc6S = molecular target: GalNAc(b1-4)GlcNAc6S
# In short: as §1
# GalNAc(b1-6)GalNAc = molecular target: GalNAc(b1-6)GalNAc
# In short: as §1
# GalNAc3S(b1-4)GlcNAc = molecular target: GalNAc3S(b1-4)GlcNAc
# In short: as §1
# GalNAc3S(b1-4)GlcNAc3S = molecular target: GalNAc3S(b1-4)GlcNAc3S
# In short: as §1
# [9] = molecular target: GalNAc3S(b1-4)[Fuc(a1-3)]GlcNAc
# In short: as §1
# GalNAc4S6S(b1-4)GlcNAc = molecular target: GalNAc4S6S(b1-4)GlcNAc
# In short: as §1
# GalNAc6S(b1-4)GlcNAc = molecular target: GalNAc6S(b1-4)GlcNAc
# In short: as §1
# Glc(a1-4)Glc = molecular target: Glc(a1-4)Glc
# In short: as §1
# [10] = molecular target: Glc(a1-4)Glc(a1-4)Glc(a1-4)Glc
# In short: as §1
# Glc(a1-6)Glc(a1-6)Glc = molecular target: Glc(a1-6)Glc(a1-6)Glc
# In short: as §1
# [11] = molecular target: Glc(a1-6)Glc(a1-6)Glc(a1-6)Glc
# In short: as §1
# Glc(b1-4)Glc = molecular target: Glc(b1-4)Glc
# In short: as §1
# Glc(b1-6)Glc = molecular target: Glc(b1-6)Glc
# In short: as §1
# GlcA(b1-3)Gal = molecular target: GlcA(b1-3)Gal
# In short: as §1
# GlcA(b1-3)GlcNAc = molecular target: GlcA(b1-3)GlcNAc
# In short: as §1
# GlcA(b1-6)Gal = molecular target: GlcA(b1-6)Gal
# In short: as §1
# [12] = molecular target: GlcA3S(b1-3)Gal(b1-4)GlcNAc(b1-2)Man
# In short: as §1
# [13] = molecular target: GlcA3S(b1-3)Gal(b1-4)GlcNAc(b1-3)Gal(b1-4)Glc
# In short: as §1
# [14] = molecular target: GlcNAc(a1-3)Gal(b1-4)GlcNAc
# In short: as §1
# [15] = molecular target: GlcNAc(a1-4)Gal(b1-3)GlcNAc
# In short: as §1
# [16] = molecular target: GlcNAc(a1-4)Gal(b1-4)GalNAc
# In short: as §1
# [17] = molecular target: GlcNAc(a1-4)Gal(b1-4)GlcNAc
# In short: as §1
# [18] = molecular target: GlcNAc(a1-4)Gal(b1-4)GlcNAc(b1-3)Gal(b1-4)Glc
# In short: as §1
# [19] = molecular target: GlcNAc(a1-4)Gal(b1-4)GlcNAc(b1-3)Gal(b1-4)GlcNAc
# In short: as §1
# [20] = molecular target: GlcNAc(a1-4)Gal(b1-4)GlcNAc(b1-3)Gal(b1-4)GlcNAc(b1-3)Gal(b1-4)GlcNAc
# In short: as §1
# [21] = molecular target: GlcNAc(a1-4)Gal(b1-4)GlcNAc(b1-3)Gal(b1-4)[Fuc(a1-3)]GlcNAc(b1-3)Gal(b1-4)[Fuc(a1-3)]GlcNAc
# In short: as §1
binder,measurement,setting,value
"HBHA-Rv (Mycobacterium tuberculosum), P0A5P6 (protein) MAENSNIDDIKAPLLAALGAADLALATVNELITNLRERAEETRTDTRSRVEESRARLTKLQEDLPEQLTELREKFTAEELRKAAEGYLEAATSRYNELVERGEAALERLRSQQSFEEVSARAEGYVDQAVELTQEALGTVASQTRAVGERAAKLVGIELPKKAAPAKKAAPAKKAAPAKKAAAKKAPAKKAAAKKVTQK",glycan array binding signal (z-score),Gal6S(b1-4)Glc,1.36
same,glycan array binding signal (z-score),Gal6S(b1-4)Glc6S,0.834
same,glycan array binding signal (z-score),Gal6S(b1-4)GlcNAc,0.696
same,glycan array binding signal (z-score),Gal6S(b1-4)GlcNAc6S,0.203
same,glycan array binding signal (z-score),GalNAc(a1-3)Gal,0.188
same,glycan array binding signal (z-score),GalNAc(a1-3)GalNAc,0.675
same,glycan array binding signal (z-score),[1],-0.385
same,glycan array binding signal (z-score),[2],0.131
same,glycan array binding signal (z-score),GalNAc(b1-3)Gal,-0.428
same,glycan array binding signal (z-score),[3],-0.143
same,glycan array binding signal (z-score),[4],-0.273
same,glycan array binding signal (z-score),[5],-0.235
same,glycan array binding signal (z-score),GalNAc(b1-3)GalNAc,-0.163
same,glycan array binding signal (z-score),GalNAc(b1-3)GlcNAc,-0.441
same,glycan array binding signal (z-score),GalNAc(b1-4)Gal(b1-4)Glc,0.744
same,glycan array binding signal (z-score),GalNAc(b1-4)GlcNAc,0.053
same,glycan array binding signal (z-score),[6],-0.402
same,glycan array binding signal (z-score),[7],-0.27
same,glycan array binding signal (z-score),[8],-0.376
same,glycan array binding signal (z-score),GalNAc(b1-4)GlcNAc6S,-0.368
same,glycan array binding signal (z-score),GalNAc(b1-6)GalNAc,-0.114
same,glycan array binding signal (z-score),GalNAc3S(b1-4)GlcNAc,-0.432
same,glycan array binding signal (z-score),GalNAc3S(b1-4)GlcNAc3S,-0.14
same,glycan array binding signal (z-score),[9],-0.399
same,glycan array binding signal (z-score),GalNAc4S6S(b1-4)GlcNAc,0.487
same,glycan array binding signal (z-score),GalNAc6S(b1-4)GlcNAc,-0.039
same,glycan array binding signal (z-score),Glc(a1-4)Glc,0.02
same,glycan array binding signal (z-score),[10],0.332
same,glycan array binding signal (z-score),Glc(a1-6)Glc(a1-6)Glc,-0.268
same,glycan array binding signal (z-score),[11],0.094
same,glycan array binding signal (z-score),Glc(b1-4)Glc,1.04
same,glycan array binding signal (z-score),Glc(b1-6)Glc,0.495
same,glycan array binding signal (z-score),GlcA(b1-3)Gal,-0.107
same,glycan array binding signal (z-score),GlcA(b1-3)GlcNAc,-0.198
same,glycan array binding signal (z-score),GlcA(b1-6)Gal,-0.059
same,glycan array binding signal (z-score),[12],-0.221
same,glycan array binding signal (z-score),[13],-0.379
same,glycan array binding signal (z-score),[14],-0.144
same,glycan array binding signal (z-score),[15],-0.234
same,glycan array binding signal (z-score),[16],-0.116
same,glycan array binding signal (z-score),[17],0.052
same,glycan array binding signal (z-score),[18],-0.364
same,glycan array binding signal (z-score),[19],-0.247
same,glycan array binding signal (z-score),[20],-0.305
same,glycan array binding signal (z-score),[21],0.543
